Experimental data as given in paper PMC4336329 (PLoS ONE, 2015).
The whole screen tested about 310,000 compounds, of which about 2,200 (0.71%) showed an effect of 50% or more. Effects have a minus sign here. The list shows a part of the results.

Each compound was assayed against human ether-à-go-go-related gene (hERG) potassium channel (human, UniProt Q12809) (assay: primary screen, population patch clamp on CHO cells stably expressing hERG).
Sequence of human ether-à-go-go-related gene (hERG) potassium channel (Q12809 whole entry, looked up): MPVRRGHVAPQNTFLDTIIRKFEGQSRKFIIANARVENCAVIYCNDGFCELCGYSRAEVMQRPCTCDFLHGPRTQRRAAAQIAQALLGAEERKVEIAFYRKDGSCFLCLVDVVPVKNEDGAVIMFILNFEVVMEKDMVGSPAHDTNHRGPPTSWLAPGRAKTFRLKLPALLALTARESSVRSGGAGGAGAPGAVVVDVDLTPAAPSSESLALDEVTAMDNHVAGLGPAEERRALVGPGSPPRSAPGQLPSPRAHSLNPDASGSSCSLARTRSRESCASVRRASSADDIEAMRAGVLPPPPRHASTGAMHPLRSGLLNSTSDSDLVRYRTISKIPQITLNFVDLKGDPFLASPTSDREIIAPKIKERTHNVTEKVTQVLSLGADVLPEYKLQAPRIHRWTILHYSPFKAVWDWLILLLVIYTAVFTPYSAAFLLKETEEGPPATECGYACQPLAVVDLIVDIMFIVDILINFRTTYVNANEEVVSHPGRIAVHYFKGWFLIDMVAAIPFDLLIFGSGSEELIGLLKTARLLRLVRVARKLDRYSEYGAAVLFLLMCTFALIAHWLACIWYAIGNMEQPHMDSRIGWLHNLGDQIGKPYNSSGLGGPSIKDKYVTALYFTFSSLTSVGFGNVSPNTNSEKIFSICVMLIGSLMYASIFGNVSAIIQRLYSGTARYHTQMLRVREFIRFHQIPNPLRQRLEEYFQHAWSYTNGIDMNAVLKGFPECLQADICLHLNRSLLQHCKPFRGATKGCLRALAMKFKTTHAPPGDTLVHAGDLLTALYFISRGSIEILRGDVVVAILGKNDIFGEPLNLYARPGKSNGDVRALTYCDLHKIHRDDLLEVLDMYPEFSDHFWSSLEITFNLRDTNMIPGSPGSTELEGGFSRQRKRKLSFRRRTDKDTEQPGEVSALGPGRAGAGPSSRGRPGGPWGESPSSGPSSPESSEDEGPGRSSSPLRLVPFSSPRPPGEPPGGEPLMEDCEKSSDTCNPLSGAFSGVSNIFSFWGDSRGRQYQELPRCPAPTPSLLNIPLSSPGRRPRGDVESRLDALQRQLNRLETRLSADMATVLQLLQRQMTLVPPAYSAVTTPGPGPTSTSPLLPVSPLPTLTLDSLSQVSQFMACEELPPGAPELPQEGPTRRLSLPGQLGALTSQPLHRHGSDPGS

Compound | hERG current change (%, negative = inhibition) at 1uM
Cc1ccc(CNC(=O)Nc2ccc(C)cc2)cc1 | 5.3%
CN1CCN(CCC(=O)Nc2ccc3c(c2)OCO3)CC1 | 9.02%
CC(=O)Nc1ccc(NS(C)(=O)=O)cc1 | 8.76%
COC(=O)c1nc2ccc(N3CCOCC3)cc2c(C)c1C(=O)OC | -7.06%
CCCC(CCC)C(=O)Nc1ccncc1 | 4.14%
CCOC1=CC(=O)N(Cc2ccccc2)C1 | 13.4%
CCOc1ccccc1Nc1ncccc1C(=O)O | 6.65%
Cc1cccc(NC(=O)NC(=O)c2ccccc2)n1 | 6.79%
CCc1ccc(NC(=O)Nc2cc(C(=O)O)ccc2N2CC3CC(C2)c2cccc(=O)n2C3)cc1 (centres unmarked) | 19.5%
Cc1cc(C(=O)CSc2nnc(-c3ccc(F)cc3)o2)c(C)n1CC1COc2ccccc2O1 (centres unmarked) | 11.8%
COc1ccc(C)cc1N(CC(=O)NC(C)c1ccccc1)S(C)(=O)=O (centres unmarked) | -0.598%
NC(=O)CSc1ncnc2c1nnn2Cc1ccc(F)cc1 | 7.63%
CCOc1ccc2oc(C(=O)Nc3ccc(N4CCOCC4)cc3)c(C)c2c1 | 6.5%
COC(=O)[C@H]1C[C@@H](c2ccccc2)[C@H](C)C1(C)C | 15.3%
CC(C)(C)OC(=O)CNC(=O)c1nc[nH]c1C(=O)N1CCN(c2ccccc2)CC1 | 3.09%
Cc1nnc(NC(=O)c2cc(-c3ccco3)nc3ccccc23)s1 | 8.32%
CC1CCCCN1CC(O)COc1ccc(OCC(O)CN2CCCCC2C)cc1 (centres unmarked) | 13.5%
Cc1cc(-c2nc(C)c(C(=O)NNS(=O)(=O)c3ccc(Cl)cc3Cl)s2)no1 | 7.93%
CC(C)CCOc1ccc(C(=O)C[N+]2(C)CCOCC2)cc1.[I-] | 8.81%
COC(=O)C1=C(C)N(CC2CCCO2)C(=O)C1 (centres unmarked) | 0.685%

Compound | hERG current change (%, negative = inhibition) at 1uM
CN(Cc1cnn(C)c1)C(=O)C1CCC(=O)N(Cc2cccc(F)c2)C1 (centres unmarked) | -26.9%
Cn1c(SCC(=O)Nc2ccc(Br)cc2F)nnc1-c1ccco1 | 5.26%
CCCNC(=O)C1=C(C)C(=O)OC12CCC(C)CC2 (centres unmarked) | 4.85%
CCN1N=C(c2ccccc2)Cn2c1nc1ccccc12 | -8.48%
Cc1ccc(OCC(=O)O/N=C(\N)c2ccccn2)cc1 | 3.91%
O=C(O)c1ccc(CNC(=O)C23CC4CC(CC(C4)C2)C3)cc1 | 20.9%
Cc1ccc(S(=O)(=O)N(C)C)cc1NC(=O)COC(=O)C1CC1 | 17.3%
C/C(=N/NC(=O)CNC(=O)c1ccccn1)c1ccccc1 | 7.7%
Cc1ccc(NC(=O)C2CCN(S(=O)(=O)c3cccs3)CC2)cc1 | -9.36%
O=C(NCCc1ccccc1C(F)(F)F)C1CCC(=O)N(C2CC2)C1 (centres unmarked) | 0.207%
Cc1onc(-c2ccccc2)c1C(=O)OCCOc1ccccc1F | 9.61%
O=C(Nc1cccc2ccccc12)C1CCN(C(=O)NCc2ccccc2)CC1 | 12.2%
O=C(c1ccco1)N1CCN(c2nc(C(F)(F)F)nc3c2nnn3Cc2ccccc2)CC1 | -2.44%
CCCc1cc(=O)[nH]c(Nc2ccc(N3CCCCC3)cc2)n1 | -12.4%
Clc1ccccc1N1CCN(Cc2ccc(Br)o2)CC1 | 7.76%
CSc1cc(C)[nH]c(=O)n1 | 9.91%
CS(=O)(=O)NCCCNc1ccc(Cl)cc1[N+](=O)[O-] | 3.06%
O=C(/C=C/c1ccccc1)NC(=S)Nc1ccccc1C(=O)NC1CCCCC1 | -1.37%
COc1cc(OC)c(NC(=S)Nc2cccc(C(C)=O)c2)cc1Cl | 6.24%
O=C(NCc1ccccn1)c1cccc(NS(=O)(=O)c2ccc(Br)cc2)c1 | 8.69%

Compound | hERG current change (%, negative = inhibition) at 1uM
O=C(NC(=S)Nc1ccccc1N1CCN(C(=O)c2ccccc2)CC1)c1cccs1 | 11.1%
CCOCCCNC(=O)c1ccc(C2SCC(=O)N2Cc2ccccc2)cc1 (centres unmarked) | 15%
CCCC(=O)OC1CC(C)N(C(=O)c2ccccc2)c2ccc(C)cc21 (centres unmarked) | 13.2%
CCCCOC(=O)C1CN(c2ccccc2)N=C1C(C)=O (centres unmarked) | 12.5%
CCCC1(C(=O)OC)NC(c2ccco2)C2C(=O)N(c3ccc(C)cc3)C(=O)C21 (centres unmarked) | 16.2%
Cc1ccc(Nc2cc(C)nc3ncnn23)c(C)c1 | 13.4%
COc1cccc(-n2nnc3c(=O)n(Cc4ccc(C)cc4)cnc32)c1 | 15.2%
Cc1cc(NC(=O)CCC(=O)N(Cc2ccco2)C2(C(=O)NC3CCCCC3)CCCCC2)no1 | 9.45%
Cc1cc(NC(=O)Cn2nc([N+](=O)[O-])c(Br)c2C)no1 | 15.4%
COc1ccccc1CN1C[C@@H]2C[C@@H](c3ccccc3OC)N3CCC[C@@]23C1=O | 12.4%
CC(Oc1ccccc1)C(=O)NC1C(=O)N2C1SC(C)(C)C2C(=O)[O-].[K+] (centres unmarked) | 8.45%
O=C(Nc1ccccc1)Nc1nnc(-c2cccs2)s1 | 15%
CCN(CC)c1ccc(C2NC(=O)NC(C)=C2C(=O)Nc2ccccc2)cc1 (centres unmarked) | 17.3%
Cl.NC(Cc1ccc2nsnc2c1)C(=O)O (centres unmarked) | 3.22%
O=C(CN(C(=O)CNC(=O)c1cccs1)c1ccc2c(c1)OCCO2)NC1CCCC1 | -3.99%
Cc1ccccc1C(=O)NC1CCN(Cc2nnnn2C2CCCC2)CC1 | 6.71%
O=C(O)CSc1sc(=S)sc1SCC(=O)O | 8.02%
COc1cccc(CNC(=O)CCC(=O)N2CCSc3ccccc32)c1OC | 12.4%
CCOCCOc1nc2c(c(=O)n(C)c(=O)n2C)n1Cc1ccc(C)cc1 | 0.0056%
